# Data as given in PubChem BioAssay AID504339 (National Center for Advancing Translational Sciences (NCATS), 2011).
# The whole screen tested about 390,000 compounds, of which about 17,000 (4.4%) were called active. Inconclusive means that the source gave no clear call. Such entries were picked first, then a sample of the others. Calls follow the shape of the dose curve; as a rule, active = well fitted inhibition curve with a large enough effect; inconclusive = small, poorly fitted or top-dose-only effect; inactive = no such curve, though single readings can be large or run the other way. Potencies of inconclusive entries are doubtful fits and often do not repeat.
# Biological target: Lysine-specific demethylase 4A (Homo sapiens) (UniProt O75164)
# Experiment: qHTS Assay for Inhibitors of JMJD2A-Tudor Domain; also: nearly all actives have a fitted effect of over 50% in size
# Conditions: AlphaScreen JMJD2A-Tudor / H3K4me3 peptide binding; activity change, negative = inhibition: at 114 µM (top of the series)
# % is scaled to controls: 0 for no effect and ±100 for the full control effect; potency is read from the fitted curve at half-maximal effect; tags tell the direction and shape of the fitted curve.
# UniProt O75164, sequence (O75164 whole entry, looked up, the tested form may be a part): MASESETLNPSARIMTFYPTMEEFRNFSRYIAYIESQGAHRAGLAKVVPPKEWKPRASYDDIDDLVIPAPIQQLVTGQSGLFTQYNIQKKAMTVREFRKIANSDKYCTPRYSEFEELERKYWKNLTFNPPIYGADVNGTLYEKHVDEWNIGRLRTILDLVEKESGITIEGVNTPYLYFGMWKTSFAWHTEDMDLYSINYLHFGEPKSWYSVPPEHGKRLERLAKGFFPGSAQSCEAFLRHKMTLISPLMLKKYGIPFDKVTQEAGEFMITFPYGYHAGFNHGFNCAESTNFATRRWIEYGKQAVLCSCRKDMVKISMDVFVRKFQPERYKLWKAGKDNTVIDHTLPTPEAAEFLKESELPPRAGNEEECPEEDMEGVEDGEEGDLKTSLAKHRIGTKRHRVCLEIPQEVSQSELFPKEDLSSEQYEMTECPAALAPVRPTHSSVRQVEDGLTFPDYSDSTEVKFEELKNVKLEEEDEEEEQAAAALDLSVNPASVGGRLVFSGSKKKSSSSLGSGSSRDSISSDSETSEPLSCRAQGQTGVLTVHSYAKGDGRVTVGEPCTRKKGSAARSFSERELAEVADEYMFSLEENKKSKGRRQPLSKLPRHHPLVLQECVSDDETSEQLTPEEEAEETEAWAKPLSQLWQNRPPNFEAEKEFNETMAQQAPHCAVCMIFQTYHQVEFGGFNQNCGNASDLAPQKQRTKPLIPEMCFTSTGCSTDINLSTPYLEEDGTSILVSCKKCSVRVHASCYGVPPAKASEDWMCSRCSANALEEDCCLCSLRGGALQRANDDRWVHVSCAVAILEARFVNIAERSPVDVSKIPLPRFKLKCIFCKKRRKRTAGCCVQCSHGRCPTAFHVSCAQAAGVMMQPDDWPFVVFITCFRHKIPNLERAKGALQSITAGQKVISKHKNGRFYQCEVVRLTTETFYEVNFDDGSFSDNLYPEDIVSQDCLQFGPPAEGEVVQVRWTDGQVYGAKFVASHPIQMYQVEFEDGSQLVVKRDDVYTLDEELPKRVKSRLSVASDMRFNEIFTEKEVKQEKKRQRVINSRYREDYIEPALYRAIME
Compound,Potency,"activity change, negative = inhibition"
Cc1[nH]n(-c2ccc([N+](=O)[O-])cc2)c(=O)c1C=NCCN1CCN(C(=O)c2cccc(F)c2)CC1,"inconclusive: 100 µM [inhibitor, partial curve]",
O=C(O)CCC(=O)Nc1sc2c(c1C(=O)Nc1cccc3ccccc13)CCCCC2,"inconclusive: 89.1 µM [inhibitor, partial curve]",
Clc1ccc(N/N=C/c2ccncc2)cc1Cl,"inconclusive: 56.2 µM [inhibitor, partial curve]",
Cc1ccc(C(=O)N/C(=C\c2ccccc2)C(=O)NCCCn2ccnc2)cc1,"inconclusive: 89.1 µM [inhibitor, partial curve]",
Cc1cccc(N2C(=O)CSC23C(=O)N(Cc2cccc(C(F)(F)F)c2)c2ccccc23)c1 (stereo not given),inactive,
C/C(=N\Nc1ccc(F)cc1F)c1ccc(N2CCOCC2)cc1,"inconclusive: 50.1 µM [inhibitor, partial curve]",
CCC(=O)N1CCc2cc(Br)cc(S(=O)(=O)NCc3ccc(Cl)cc3)c21,inactive,
COc1ccc(C(C)=O)cc1COC(=O)c1cc(=O)c2ccccc2o1,"inconclusive: 50.1 µM [inhibitor, partial curve]",
Cc1ccc(/C=N/n2c(C3CCCCC3)n[nH]c2=S)cc1,"inconclusive: 50.1 µM [inhibitor, partial curve]",
Cc1cccc(NC(=S)N=Nc2c(O)[nH]c3ccccc23)c1,"inconclusive: 39.8 µM [inhibitor, partial curve]",
COc1ccc(C)cc1S(=O)(=O)N1CCOCC1,,inactive: -27.1% [at 11.4 µM]
Cc1cnccc1CN(C)C(=O)C1CCC(=O)N(Cc2ccccc2F)C1 (stereo not given),"inconclusive: 79.4 µM [inhibitor, single point]",
O=C(O)c1ccc(-c2cccc(-c3nn4c(=O)cc(N5CCNCC5)nc4s3)c2)cc1,"inconclusive: 14.1 µM [inhibitor, full curve, poor fit]",
O=C(Nc1ccc(S(=O)(=O)NC2=NCCCCC2)cc1)c1ccc([N+](=O)[O-])s1,"inconclusive: 56.2 µM [inhibitor, partial curve]",
C/C(=N\N=C1\NC(=O)C(CC(=O)Nc2ccc(Cl)cc2)S1)c1ccco1 (stereo not given),"inconclusive: 89.1 µM [inhibitor, partial curve]",
Cc1ccc(NS(=O)(=O)c2ccc3[nH]c4c(c3c2)CCCCCC4)cc1Cl,"inconclusive: 50.1 µM [inhibitor, partial curve]",
C=CCOc1c(Br)cc(CNn2c(C)n[nH]c2=S)cc1OC,active: 89.1 µM,
CCOc1cc(N2CCOCC2)c(OCC)cc1NC(=O)COC(=O)c1cc2ccccc2cc1O,inactive,
CCCCN(C)C1=Nc2cccc3cccc1c23,"inconclusive: 89.1 µM [inhibitor, single point]",
O=C(O)CNC(=O)/C(=C/c1ccco1)NC(=O)/C=C/c1ccccc1,inactive,
Cc1ccc(C)c(CN2CCSCC2)c1,active: 7.08 µM,
COc1ccc(CN2CCNC(=O)C2CC(=O)NC2CCCC2)cc1OC (stereo not given),"inconclusive: 11.2 µM [inhibitor, partial curve]",

Compound,Potency,"activity change, negative = inhibition"
COc1ccc(-c2cc(C3CCN(Cc4cccc(C(F)(F)F)c4)CC3)[nH]n2)cc1,"inconclusive: 79.4 µM [inhibitor, partial curve]",
CCOC(=O)CSC1=C(C#N)C(c2ccccc2F)C(C(C)=O)=C(C)N1 (stereo not given),"inconclusive: 89.1 µM [inhibitor, single point]",
O=Nc1c(-c2c(O)[nH]c3cc(Br)ccc23)[nH]c2ccccc12,active: 3.16 µM,
O=C(NCC(c1ccco1)S(=O)(=O)c1ccc(Cl)cc1)c1ccccc1F (stereo not given),inactive,
Brc1cccc(-c2cnc3n2CCCCC3)c1,"inconclusive: 56.2 µM [inhibitor, partial curve]",
Cc1ccc(N(C(=O)CS(=O)CC(=O)Nc2ccc(F)cc2)C(C)C(=O)NC(C)(C)C)cc1 (stereo not given),inactive,
C[C@H](NC(=O)c1nc[nH]c1C(=O)NC1CCN(C(=O)OC(C)(C)C)CC1)C(=O)OCc1ccccc1,"inconclusive: 50.1 µM [inhibitor, partial curve]",
CNC(=S)NNC(=O)CCn1nc(C)c(Br)c1C,inactive,
CCC1(O)C(=O)OCc2c1cc1n(c2=O)Cc2cc3c(N)cccc3nc2-1 (stereo not given),inactive,
COc1cccc(-c2nn(-c3ccc(C)cc3)cc2C(=O)NCC(c2cccs2)N2CCOCC2)c1 (stereo not given),"inconclusive: 63.1 µM [inhibitor, partial curve]",
COc1cccc(C2=NN(C(=O)c3ccco3)C(c3ccco3)C2)c1 (stereo not given),inactive,
O=S(=O)(c1ccccc1)c1nc(-c2ccccc2)oc1NCc1cccnc1,"inconclusive: 79.4 µM [inhibitor, partial curve]",
CCOc1ncccc1C(=O)OCCN1C(=O)c2ccccc2C1=O,"inconclusive: 28.2 µM [inhibitor, single point]",
CSc1cccc(NC(=O)CN(c2ccccc2)S(=O)(=O)N(C)C)c1,"inconclusive: 56.2 µM [inhibitor, partial curve]",
Cc1ccc(-n2nc3c(=O)n(CCCC(=O)NCc4ccccc4Cl)nc(C)c3c2C)cc1,inactive,
CCOC(=O)c1sc(N2N=C(C)/C(=C\c3ccc(OCC(=O)OC)cc3)C2=O)nc1C,inactive,
COc1ccc(S(=O)(=O)c2ccccc2)cc1NS(=O)(=O)c1cccc(C(=O)O)c1,"inconclusive: 50.1 µM [inhibitor, partial curve]",
CC(=O)Nc1ccc(NC(=O)C(C)OC(=O)c2ccc3[nH]c(C)c(C)c3c2)cc1 (stereo not given),"inconclusive: 3.98 µM [inhibitor, single point]",
Cc1nn(C)c(C)c1CNC(=O)/C=C/c1ccccc1F,inactive,
CCc1ccc2nc(N(CCN(C)C)C(=O)c3ccc4ccccc4c3)sc2c1,"inconclusive: 44.7 µM [inhibitor, partial curve]",
Cc1c(C)n(Cc2ccc(Cl)cc2)c2ccc(C(=O)NCCc3ccc(S(N)(=O)=O)cc3)cc12,"inconclusive: 14.1 µM [inhibitor, full curve, poor fit]",
CC(=O)N(/N=C1/C(=O)Nc2ccccc21)c1ccccc1,"inconclusive: 17.8 µM [inhibitor, full curve]",

Compound,Potency,"activity change, negative = inhibition"
N[C@@H](Cc1ccccc1)c1nnc2sc(SCc3ccccc3)nn12,"inconclusive: 39.8 µM [inhibitor, partial curve]",
Cc1noc(C)c1CSc1nnc(C)c(=O)[nH]1,"inconclusive: 100 µM [inhibitor, single point]",
Cc1cccc(NC(=O)N(Cc2cc3cc(C)cc(C)c3[nH]c2=O)CC2COCCO2)c1 (stereo not given),"inconclusive: 44.7 µM [inhibitor, partial curve]",
CCOC(=O)c1ccc(S(=O)(=O)NCC(c2ccc(N(C)C)cc2)c2c[nH]c3ccccc23)cc1 (stereo not given),active: 11.2 µM,
O=C(Nc1ccc2c(c1)OCO2)C1Cc2ccccc2CN1S(=O)(=O)c1cccs1 (stereo not given),"inconclusive: 79.4 µM [inhibitor, partial curve]",
CCOC(=O)c1cc(-c2ccccc2)n(CC(=O)N(C)c2ccc(OC)cc2)c1C,"inconclusive: 44.7 µM [inhibitor, partial curve]",
On1c(-c2ccc(Cl)cc2)nc2ccccc21,"inconclusive: 56.2 µM [inhibitor, partial curve]",
CC1(C)OC(c2ccccc2)=C/C(=C/C=N/NC(=O)c2ccncc2)O1,"inconclusive: 56.2 µM [inhibitor, partial curve]",
O=C1[C@H]2CCC=C[C@H]2[C@H](c2cccc(Br)c2)N1Cc1ccccc1,"inconclusive: 39.8 µM [inhibitor, partial curve]",
COc1ccc(S(=O)(=O)N2CCOCC2)cc1NC(=O)/C=C/c1ccccc1,"inconclusive: 4.47 µM [inhibitor, partial curve, poor fit]",
CCOC(=O)c1cnn(-c2ncnc3sc4c(c23)CCC4)c1N,"inconclusive: 79.4 µM [inhibitor, partial curve]",
CCCCN(CCCC)CC(O)Cn1cc(/C=C/C(=O)c2ccccc2)c2ccccc21 (stereo not given),"inconclusive: 79.4 µM [inhibitor, single point]",
COc1ccc(NC(=O)Cn2nnc(C(=O)NCCc3ccccc3)c2N)c(OC)c1,"inconclusive: 50.1 µM [inhibitor, partial curve]",
CC(=O)c1c(N2CCOCC2)[nH]c(-c2ccccc2)nc1=S,"inconclusive: 56.2 µM [inhibitor, partial curve, poor fit]",
CCOCC(=O)Nc1ccc(-c2cn3cccnc3n2)cc1,inactive,
Cc1cc(C)c2nc(SCC(=O)Nc3ccccc3N3CCOCC3)c(C#N)cc2c1,"inconclusive: 89.1 µM [inhibitor, single point]",
CC(=O)N1CCN(c2ccc(NC(=O)c3ccccc3Cl)cc2)CC1,"inconclusive: 35.5 µM [inhibitor, partial curve]",
COc1cc(/C=N/NC(=O)c2ccc3ccccc3c2)ccc1Oc1ccc([N+](=O)[O-])cn1,active: 25.1 µM,
CCOc1ccc(C(=O)NC(=S)Nc2cccnc2)cc1[N+](=O)[O-],"inconclusive: 35.5 µM [inhibitor, single point]",
Cc1cccc2c(C(=O)N3CCN(c4ccccc4)CC3)cc(-c3ccncc3)nc12,"inconclusive: 50.1 µM [inhibitor, partial curve]",
COc1ccc(-c2nc(CSCC(=O)N3CCN(c4ccc(OC)cc4)CC3)c(C)o2)cc1,"inconclusive: 50.1 µM [inhibitor, partial curve]",
